# Results from the supplement of paper PMC3334620.
# Whole data set: some 33,000 sequences, median “E-score (-0.5 to 0.5)” near -0.041, cut for the highest 2% near 0.37. The list shows a part of the results.
# Biological target: T1, Ecm22 (UniProt Q05958)
# T1 sequence: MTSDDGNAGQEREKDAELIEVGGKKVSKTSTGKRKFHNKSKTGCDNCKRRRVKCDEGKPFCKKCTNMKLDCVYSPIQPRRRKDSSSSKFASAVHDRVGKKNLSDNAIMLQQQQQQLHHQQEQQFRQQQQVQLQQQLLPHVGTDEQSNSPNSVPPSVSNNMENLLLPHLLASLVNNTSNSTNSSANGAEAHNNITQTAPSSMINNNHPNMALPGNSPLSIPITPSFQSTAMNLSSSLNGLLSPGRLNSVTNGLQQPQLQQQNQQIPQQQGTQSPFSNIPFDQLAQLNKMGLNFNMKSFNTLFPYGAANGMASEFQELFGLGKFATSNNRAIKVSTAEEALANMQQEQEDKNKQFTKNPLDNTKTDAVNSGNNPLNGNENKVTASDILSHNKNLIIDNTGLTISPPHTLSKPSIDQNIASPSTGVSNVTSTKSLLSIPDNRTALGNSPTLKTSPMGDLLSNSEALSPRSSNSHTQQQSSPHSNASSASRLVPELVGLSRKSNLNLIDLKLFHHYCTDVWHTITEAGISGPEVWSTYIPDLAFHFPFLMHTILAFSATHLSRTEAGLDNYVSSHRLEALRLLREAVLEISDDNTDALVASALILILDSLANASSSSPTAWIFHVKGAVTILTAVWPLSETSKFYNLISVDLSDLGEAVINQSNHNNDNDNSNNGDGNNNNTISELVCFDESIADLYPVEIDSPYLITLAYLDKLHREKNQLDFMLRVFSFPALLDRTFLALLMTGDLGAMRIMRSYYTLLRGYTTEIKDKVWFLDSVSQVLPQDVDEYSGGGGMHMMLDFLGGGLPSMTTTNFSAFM
# Experiment: PBM E-score (8-mer binding enrichment) (E-score (-0.5 to 0.5)); higher = stronger / more preferred TF binding; most listed sequences are background and not binding sites
# Settings: protein concentration: 200 nM; construct: GST-full length
# Experimental: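 Universal 'all 10-mer' protein binding microarrays (Agilent AMADID 015681) probed with GST-tagged S. cerevisiae TFs (full-length or DBD) made by in vitro transcription/translation (PURExpress), about 100-200 nM. Bound TF was detected with fluorescent anti-GST. Each ungapped 8-mer (which stands for itself and its reverse complement) is scored by the PBM enrichment score (E-score), a modified Wilcoxon-Mann-Whitney statistic from -0.5 to +0.5, computed with the Universal PBM Analysis Suite. Scale: above 0.35 generally sequence-specific binding.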
row,Sequence,PBM E-score
1,GCAACTTA,-0.108
2,GTGCTAAA,-0.00649
3,ACCACTAC,-0.145
4,CATAGCCG,-0.21
5,CGTGCACA,-0.214
6,AGTTCGAC,-0.117
7,AATGACCA,-0.193
8,TCGGAAAA,0.269
9,GCTCCGCA,0.00122
10,ATGCATTC,0.058
11,AGCCAACG,-0.0829
12,GACATATC,0.00761
13,AGCGAACT,0.0796
14,CCTCGAGC,-0.0414
15,CAGAACAA,0.0159
16,CCCAGGAG,-0.22
17,CCAGGGCA,-0.108
18,ACGGGATA,0.241
19,AGTACTTA,0.0475
20,ATAAGGTC,0.0235
21,GCTTTACA,0.0447
22,ACATAGGG,-0.235
23,CGGATCAG,0.0613
24,GATAAACA,-0.143
25,CAACATCG,0.0379

row,Sequence,PBM E-score
1,ACGGGTAT,0.106
2,GGCAACTA,-0.282
3,AGTCAAAC,0.153
4,GCAAACAA,0.0626
5,AATTCGGA,0.191
6,CTCGTTAA,0.437
7,GGCGTCCA,-0.371
8,CAACGTTG,0.165
9,ATCTTTGC,0.0357
10,ACGTTTAA,0.365
11,CAACTAAA,-0.126
12,AACGAGTT,0.41
13,GCCATCAC,-0.177
14,CCCATTGA,-0.171
15,GCACTCTA,-0.0709
16,ATGTATGA,-0.00046
17,CGAGGCTA,0.182
18,CAAGTAAC,-0.0866
19,AGCCTTGG,-0.234
20,CAACCAGA,0.102
21,CCCAGAAG,-0.187
22,AACTAGTA,0.0139
23,AGAATACT,0.0158
24,AAGTGTCC,-0.169
25,AACATCTC,-0.0822

row,Sequence,PBM E-score
1,GCTCCAAC,-0.0433
2,GTAACCTA,0.00094
3,ACGATCAG,0.224
4,CTGAGCCA,-0.299
5,TGAAAGCA,0.00634
6,AACGAAAC,0.389
7,GGGCCCTA,-0.275
8,GGCGTCAC,-0.0293
9,AAACTTTG,-0.0353
10,ATGTTAAG,-0.0147
11,GAAATCCC,-0.0904
12,ACGAGCTA,0.39
13,GGTCTGGA,-0.147
14,CTTCCACA,-0.2
15,ATCGCCAC,-0.016
16,AGGATTAC,-0.0965
17,CCTAAAAC,-0.096
18,TACTCATA,-0.0103
19,CAGGCGCC,-0.148
20,AAGCGCAC,0.0929
21,GCCATAAC,-0.275
22,CTTGATAC,0.0141
23,GAGCACTC,0.122
24,GGACACCA,-0.149
25,CGCAGCCC,-0.123

row,Sequence,PBM E-score
1,GGACAGCC,-0.00816
2,GGCCGACA,0.0235
3,CGGCTTCC,-0.146
4,AGCGGCCG,0.11
5,GCGCTAGC,-0.0399
6,AACCCTCA,-0.0419
7,CACATTGG,-0.271
8,CGGCTGAA,-0.0138
9,ATCAATCA,0.0946
10,CCGTGTGC,-0.19
11,TAGGTTGA,-0.169
12,ATCTGGAG,-0.176
13,CCTTCGGC,-0.208
14,GCAAGACC,-0.0795
15,CCGGCTAG,-0.254
16,GGCCACCC,-0.126
17,CAGGTTGC,-0.152
18,GTGTATTA,0.0757
19,GGGAGAAA,-0.141
20,AGTGCACT,-0.204
21,ACTGAACT,0.0276
22,AGGCTGCA,-0.173
23,GACCTATA,0.232
24,ATTAGGCA,-0.0941
25,CGAGACGA,0.265

row,Sequence,PBM E-score
1,GGCGCCCC,-0.193
2,AGGAATAT,0.06
3,AAACCGGC,0.0357
4,GCTTGCAC,-0.0076
5,CCTATCAC,-0.207
6,TACAGGTA,0.242
7,CTGTCTCC,-0.0908
8,ACGCTCCT,0.0309
9,AAATCACT,0.00461
10,TGCTGAAA,-0.244
11,AGCGCATC,0.0904
12,CATCGCGG,0.0538
13,ATGCCATG,0.0746
14,GACGGCGC,0.0716
15,AACTAGAT,-0.155
16,AGCGCAAA,0.0539
17,GAACATCC,0.0795
18,CCCATACC,-0.057
19,CACGCGTA,0.133
20,AATGCTGC,0.0546
21,CTGTACCA,-0.152
22,ACGAAGCC,0.332
23,GACCACGA,0.036
24,ATGACGTG,-0.166
25,TCTATGCA,-0.148

row,Sequence,PBM E-score
1,ACACTAAG,0.0219
2,GTGCTAGA,-0.338
3,GGAAAAAC,0.0925
4,GGCATTCA,-0.0839
5,GCAGTGAC,-0.273
6,CAAGGGGG,-0.172
7,CCGTACAC,0.33
8,ATCTGGAA,-0.169
9,GCCACGCA,-0.0669
10,AAGTGTGA,-0.288
11,CGTCCTAC,-0.256
12,TCCTTACA,-0.212
13,AGTTACAA,-0.00606
14,ATAGTAAT,0.124
15,AGACCAGG,-0.177
16,CGCATCAC,-0.0396
17,ATACGTTG,0.216
18,TCCGGCCA,-0.0746
19,ATCTCGCC,0.0128
20,TACTTATA,0.0873
21,AAAGATCT,-0.0673
22,TAATTTGA,-0.0645
23,CATGTCGA,-0.123
24,AAACCTTT,-0.148
25,CCAGTTCC,0.0619

row,Sequence,PBM E-score
1,TATAGCCA,0.15
2,CGGCAGTC,0.114
3,CGGCGGCA,0.015
4,CTTTGAAA,0.0595
5,TCAGTCCA,-0.28
6,GCTGTCCA,-0.159
7,AACCAATT,-0.233
8,AAGCTAGT,-0.186
9,CGTCAAAC,0.148
10,AACCGCTA,-0.0392
11,ATCAATAA,0.0621
12,CGCTGCGC,-0.00429
13,AAGTCGAA,-0.148
14,TAGGCGAA,0.108
15,AGGACCTA,-0.0144
16,CAGGGCGG,-0.072
17,AACAACGA,0.283
18,AGGTCACA,-0.288
19,GCGGTCAC,-0.122
20,AATGACAA,-0.0983
21,AACTTCTA,-0.0506
22,ACAGAGAG,-0.198
23,AGCGTCGG,0.154
24,TAATACCA,0.0168
25,CCAGTTTA,-0.038

row,Sequence,PBM E-score
1,CGCAGGCG,-0.169
2,ACGAGACC,0.33
3,CCTCGTAA,0.446
4,AGCGATAG,0.0441
5,CCATGTTA,-0.172
6,AGGTGTGA,-0.28
7,AGAGACGG,-0.0903
8,ATAGCAAC,-0.09
9,AAGAGGGA,0.0565
10,TCGCCGCA,-0.0806
11,CGACGCAA,0.185
12,ACTAGTGG,-0.231
13,AGTCTGTC,-0.163
14,ATACAGAC,0.143
15,ATAGAGAC,-0.0963
16,GTAGATCA,0.0453
17,GAGATAAC,-0.0197
18,GTAAGTAA,0.0369
19,CGAGTAGC,0.192
20,AAAAGATC,0.0363
21,TGAAGTAA,-0.143
22,GAGCTCCC,-0.0491
23,ACTTAACC,-0.163
24,AGCGCCAC,-0.0549
25,ATCAGGAG,0.0111

row,Sequence,PBM E-score
1,CTTATTCC,-0.263
2,AGCTTCAC,0.0436
3,CGGCGACC,0.0427
4,TACCTGGA,0.0274
5,ACATGCGC,-0.0219
6,AAGGGGAC,-0.152
7,TGCTATAA,-0.257
8,AATAAATT,0.0545
9,ACGCGCTC,0.141
10,CACCATGG,-0.173
11,GTAATCTA,0.117
12,ATCTACAA,0.0503
13,CCCTGTCG,0.175
14,ATCAGGTA,-0.131
15,AGCCTAAA,-0.0783
16,AAGTGGAC,-0.156
17,ATAGTGAG,-0.181
18,CACATGCA,-0.149
19,AAGCGCGT,0.0575
